From the supplement of paper PMC8813932
Where a name gives a salt, the structure may show the parent alone. ± gives the standard deviation of the averaged measurements. The list shows a part of the results. Many values rest on one well or one pass, so single values are uncertain.

How the values were obtained:
Experiment in all cases: log2 surviving fraction relative to plate median (drug vs vehicle, or drug+dl922-947 vs dl922-947 alone); ovarian cancer lines: OVCAR4 is platinum-sensitive while Ov4Cis resists cisplatin and Ov4Carbo carboplatin; higher = more cell survival
Conditions in all cases: compound concentration: 10 uM, 192 h
OVCAR4 = tested on: OVCAR4
Ov4Carbo = tested on: Ov4Carbo
Ov4Cis = tested on: Ov4Cis
[1] = dl922-947 oncolytic adenovirus co-treatment: MOI 10
[2] = dl922-947 oncolytic adenovirus co-treatment: none

Row | Compound | log2 surviving fraction (OVCAR4; [1]) | log2 surviving fraction (OVCAR4; [2]) | log2 surviving fraction (Ov4Carbo; [1]) | log2 surviving fraction (Ov4Carbo; [2]) | log2 surviving fraction (Ov4Cis; [1]) | log2 surviving fraction (Ov4Cis; [2])
1 | c1cnc2cc3c(cc2n1)[C@@H]1CNC[C@H]3C1 [Varenicline tartrate] | 0.49 ± 0.69 | 0.487 ± 0.18 | -0.524 | 1.16 | -0.21 | 0.549
2 | O=C(O)Cc1ccccc1Nc1c(Cl)cccc1Cl [Diclofenac Diethylamine] | 0.425 ± 0.78 | -0.685 ± 1.2 | -1.18 | 0.602 | -1.22 | -0.476
3 | Fc1ccc(C(c2ccc(F)cc2)N2CCN(C/C=C/c3ccccc3)CC2)cc1 [Flunarizine 2HCl] | -1.85 ± 0.11 | -1.98 ± 0.64 | -1.47 | -3.74 | -2.96 | -2.36
4 | CCCCC(C)(O)C/C=C/[C@H]1[C@H](O)CC(=O)[C@@H]1CCCCCCC(=O)OC (mixture of isomers) [Misoprostol] | -0.18 ± 0.32 | -1.48 ± 0.25 | -0.791 | -1.1 | -1.04 | -0.53
5 | [O-][n+]1ccccc1[S-].[O-][n+]1ccccc1[S-].[Zn+2] [Pyrithione zinc] | -8.85 ± 0.8 | -10.5 ± 5.9 | -7.54 | -10.7 | -8.84 | -13.5
6 | CCOCC(O)COc1ccc(NC(=O)CC[S+](C)C)cc1 (stereo unspecified) [Suplatast tosylate] | -0.182 ± 0.13 | -0.288 ± 0.01 | 0.398 | -0.84 | -0.464 | -0.48
7 | O=C(O)c1ccc(NC(=O)[C@H](Cc2ccc(O)cc2)NC(=O)c2ccccc2)cc1 [Bentiromide] | 0.686 ± 0.11 | 0.95 ± 1.1 | 0.024 | 0.406 | -0.18 | 1.13
8 | CC(C)NCC(O)COc1ccc(COCCOC(C)C)cc1 (stereo unspecified) [Bisoprolol] | -0.612 ± 0.44 | 0.981 ± 0.05 | 1.1 | 0.942 | -0.199 | -0.154
9 | CC1(C)S[C@@H]2[C@H](NC(=O)[C@H](NC(=O)N3CCN(S(C)(=O)=O)C3=O)c3ccccc3)C(=O)N2[C@H]1C(=O)O [Mezlocillin Sodium] | 0.169 ± 0.18 | 0.212 ± 0.58 | 0.62 | 1.06 | -0.0925 | 0.444
10 | CCOC(=O)[C@H](CCc1ccccc1)N[C@@H](C)C(=O)N1[C@H](C(=O)O)C[C@@H]2CCC[C@@H]21 [Ramipril (Altace)] | 0.486 ± 0.1 | 0.605 ± 0.37 | 1.17 | 0.748 | 0.277 | 0.455
11 | CN1CCN(c2cc3c(cc2F)c(=O)c(C(=O)O)cn3-c2ccc(F)cc2)CC1 [Difloxacin HCl] | 0.462 ± 0.025 | 0.2 ± 0.087 | -0.703 | 0.193 | -1.45 | -0.449
12 | S=c1[nH]cnc2nc[nH]c12 [Mercaptopurine] | -0.777 ± 0.25 | -3.51 ± 2 | -1.66 | -6.38 | -0.168 | -1.94
13 | NCCNCCNCCNCCN [Tetraethylenepentamine 5HCl] | -0.995 ± 0.14 | -1.29 ± 1.2 | -1.1 | -3.61 | 0.272 | -0.145
14 | O=C[C@H](O)[C@@H](O)[C@H](O)CO [Xylose] | -0.00149 ± 0.11 | -0.467 ± 0.47 | 0.568 | -0.124 | -0.745 | -0.692
15 | CC(CCc1ccc(O)cc1)NCC(O)c1ccc(O)cc1 (stereo unspecified) [Ractopamine HCl] | -0.0182 ± 0.014 | -0.552 ± 0.53 | -0.944 | -0.345 | -0.481 | -0.347
16 | CC(=O)CCCCn1c(=O)c2c(ncn2C)n(C)c1=O [Pentoxifylline] | 0.314 ± 0.39 | -0.456 ± 1.3 | -0.00997 | 0.248 | -0.296 | 0.406
17 | CN(C)c1ccc(C(=C2C=CC(=[N+](C)C)C=C2)c2ccc(N(C)C)cc2)cc1 [Crystal violet] | -8.395 ± 0.052 | -9.96 ± 5.5 | -7.49 | -10.9 | -7.16 | -11.7
18 | O=c1[nH]cnc2c1ncn2[C@H]1CC[C@@H](CO)O1 [Didanosine (Videx)] | -0.138 ± 0.09 | -0.58 ± 0.0042 | 0.373 | 0.273 | -1.02 | 0.375
19 | Cc1ncc([N+](=O)[O-])n1CC(C)O (stereo unspecified) [Secnidazole (Flagentyl)] | -0.247 ± 0.24 | -0.229 ± 0.035 | -0.198 | -0.559 | -0.502 | 0.127
20 | CC1CCc2c(N3CCC(O)CC3)c(F)cc3c(=O)c(C(=O)O)cn1c23 (stereo unspecified) [Nadifloxacin] | -0.279 ± 0.35 | 0.0106 ± 0.62 | -1.04 | 0.677 | -0.441 | -0.0825
21 | CN(C/C=C/C#CC(C)(C)C)Cc1cccc2ccccc12 [Terbinafine (Lamisil, Terbinex)] | -0.0137 ± 0.071 | -0.161 ± 0.21 | -0.341 | -0.122 | 0.333 | -0.333
22 | COC(=O)Nc1nc2cc(Sc3ccccc3)ccc2[nH]1 [Fenbendazole (Panacur)] | -3.16 ± 4.1 | -4.21 ± 2.1 | -5.01 | -6.67 | -1.21 | -1.32
23 | O=C(C1CCCCC1)N1CC(=O)N2CCc3ccccc3C2C1 (stereo unspecified) [Praziquantel (Biltricide)] | 0.451 ± 0.21 | 0.434 ± 0.021 | -0.774 | -0.0872 | -0.00963 | 0.201

Row | Compound | log2 surviving fraction (OVCAR4; [1]) | log2 surviving fraction (OVCAR4; [2]) | log2 surviving fraction (Ov4Carbo; [1]) | log2 surviving fraction (Ov4Carbo; [2]) | log2 surviving fraction (Ov4Cis; [1]) | log2 surviving fraction (Ov4Cis; [2])
24 | CC(=O)OCC(=O)[C@@]1(O)CC[C@H]2[C@@H]3CCC4=CC(=O)CC[C@]4(C)[C@H]3C(=O)C[C@@]21C [Cortisone acetate (Cortone)] | 0.265 ± 0.41 | 0.445 ± 0.13 | 1.14 | -0.236 | 1.11 | 0.399
25 | COc1c(C)c2c(c(O)c1C/C=C(\C)CCC(=O)OCCN1CCOCC1)C(=O)OC2 [Mycophenolate mofetil (CellCept)] | -3.18 ± 1 | -5.19 ± 1.4 | -3.41 | -8.56 | -3.17 | -5.46
26 | CCC(=O)NCC[C@@H]1CCc2ccc3c(c21)CCO3 [Ramelteon (TAK-375)] | 1.29 ± 0.49 | 1.35 ± 1.4 | 2.09 | 0.906 | 1.95 | 1.31
27 | CC1(C)O[C@@H]2C[C@H]3[C@@H]4C[C@H](F)C5=CC(=O)C=C[C@]5(C)[C@@]4(F)[C@@H](O)C[C@]3(C)[C@]2(C(=O)CO)O1 [Fluocinolone acetonide (Flucort-N)] | 1.66 ± 0.43 | -0.294 ± 0.096 | 2.3 | 1.2 | 1.83 | -0.656
28 | OC[C@@H](O)[C@@H](O)[C@H](O)[C@H](O)CO [D-Mannitol (Osmitrol)] | -0.108 ± 0.64 | 0.652 ± 0.3 | 0.133 | 0.415 | 0.741 | 0.0351
29 | CC(O)(CS(=O)(=O)c1ccc(F)cc1)C(=O)Nc1ccc(C#N)c(C(F)(F)F)c1 (stereo unspecified) [Bicalutamide (Casodex)] | -0.613 ± 0.55 | 2.71 ± 3.7 | -0.0681 | -0.348 | 0.0669 | 0.125
30 | Nc1ccn([C@@H]2O[C@H](CO)[C@@H](O)[C@H]2O)c(=O)n1 [Cytidine] | -0.361 ± 0.47 | 0.173 ± 1 | -1.19 | 1.02 | -0.984 | 0.446
31 | O=c1[nH]c2ccccc2n1CCCN1CCC(n2c(=O)[nH]c3cc(Cl)ccc32)CC1 [Domperidone (Motilium)] | 0.918 ± 0.95 | -0.107 ± 0.93 | 1.06 | 1.16 | 0.67 | 0.474
32 | Nc1[nH]cnc2ncnc1-2 [Adenine] | -0.182 ± 0.44 | 0.321 ± 0.0093 | 0.166 | -0.0462 | 0.102 | 1.05
33 | N=C(N)NS(=O)(=O)c1ccc(N)cc1 [Sulfaguanidine] | 0.247 ± 0.22 | -0.504 ± 0.86 | 0.503 | -0.0532 | -0.599 | 0.0985
34 | Nc1nc(N)nc(-c2cc(Cl)ccc2Cl)n1 [Irsogladine] | 1.05 ± 0.64 | 0.825 ± 0.43 | 0.775 | -3.2 | 1.15 | 1.47
35 | CN(C)c1cc(NC(=O)CNC(C)(C)C)c(O)c2c1C[C@H]1C[C@H]3[C@H](N(C)C)C(O)=C(C(N)=O)C(=O)[C@@]3(O)C(O)=C1C2=O [Tigecycline] | -0.014 ± 0.31 | -0.125 ± 0.47 | 1.65 | 0.376 | -0.325 | -0.249
36 | Nc1nc(F)nc2c1ncn2[C@@H]1O[C@H](CO)[C@@H](O)[C@@H]1O [Fludarabine (Fludara)] | -0.54 ± 1.6 | -1.36 ± 0.2 | -0.893 | -2.01 | -0.195 | 0.555
37 | COC(=O)CCc1ccc(OCC(O)CNC(C)C)cc1 (stereo unspecified) [Esmolol HCl] | -0.598 ± 0.39 | -0.36 ± 0.63 | 0.957 | -2.33 | 0.41 | -0.491
38 | CC(C)(Oc1ccc(Cl)cc1)C(=O)O [Clofibric acid] | -0.00636 ± 0.59 | 0.78 ± 0.035 | -0.617 | -0.0793 | 0.777 | 0.635
39 | NC[C@H]1CC[C@H](C(=O)O)CC1 [Tranexamic acid (Transamin)] | -0.385 ± 0.89 | 1.01 ± 0.12 | 1.41 | -1.98 | 0.259 | 0.000549
40 | CC(=O)OC[C@H]1O[C@@H]([S-])[C@H](OC(C)=O)[C@@H](OC(C)=O)[C@@H]1OC(C)=O.CCP(CC)CC.[Au+] [Auranofin] | -10.1 ± 0.61 | -7.95 ± 12 | -8.2 | -11.2 | -9.76 | -14.9
41 | Cn1nnc2c(C(N)=O)ncn2c1=O [Methazolastone] | 0.366 ± 0.23 | 2.98 ± 3.5 | 2.2 | 0.393 | 0.723 | 0.564
42 | CCCCCCCCCCC[C@@H](C[C@@H]1OC(=O)[C@H]1CCCCCC)OC(=O)[C@H](CC(C)C)NC=O [Orlistat (Alli, Xenical)] | -1.13 ± 0.24 | -1.6205 ± 4.2e-05 | 1.98 | 0.629 | -2.79 | -1.34
43 | O=C(c1ccccc1)c1ccc2n1CCC2C(=O)O (stereo unspecified) [Ketorolac (Toradol)] | -0.238 ± 0.4 | 0.366 ± 1.4 | -1.17 | 0.424 | 1.08 | 1.11
44 | CCCOc1ccc2[nH]c(NC(=O)OC)nc2c1 [Oxibendazole] | -4.53 ± 1.3 | -7.74 ± 2.8 | -4.15 | -9.23 | -3.38 | -6.55
45 | O=C(c1ccc(OCCN2CCCCC2)cc1)c1c(-c2ccc(O)cc2)sc2cc(O)ccc12 [Evista (Raloxifene Hydrochloride)] | -1.34 ± 0.12 | -1.18 ± 0.77 | -4.18 | -3.57 | -2.45 | -3.99
46 | C=CC[C@@H]1/C=C(\C)C[C@H](C)C[C@H](OC)[C@H]2O[C@@](O)(C(=O)C(=O)N3CCCC[C@H]3C(=O)O[C@H](/C(C)=C/[C@@H]3CC[C@@H](O)[C@H](OC)C3)[C@H](C)[C@@H](O)CC1=O)[C@H](C)C[C@@H]2OC [FK-506 (Tacrolimus)] | 0.408 ± 0.19 | -0.254 ± 0.84 | 0.831 | -0.179 | 0.244 | -0.265
